# Reference: the supplement of paper PMC8728848
# The other results are listed elsewhere or left out.
# Key:
# Assay in all cases: glycan array binding signal (z-score within array); higher = stronger binding
# Conditions in all cases: glycan notation: IUPAC condensed, linker removed
# [1] = target: Glc(b1-6)Glc
# In short: (§1)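 Arrays were curated from the Consortium for Functional Glycomics database, 3228 in total, and kept only where the protein sequence was available. Binding is expressed as a within-array Z-score. This score was averaged across arrays of the same protein sequence at different concentrations or buffers and across linkers, and negative values can be read as non-binding.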
# [2] = target: GlcA(b1-3)Gal
# In short: as §1
# [3] = target: GlcA(b1-3)GlcNAc
# In short: as §1
# [4] = target: GlcA(b1-6)Gal
# In short: as §1
# [5] = target: GlcA3S(b1-3)Gal(b1-4)GlcNAc(b1-2)Man
# In short: as §1
# [6] = target: GlcA3S(b1-3)Gal(b1-4)GlcNAc(b1-3)Gal(b1-4)Glc
# In short: as §1
# [7] = target: GlcNAc(a1-3)Gal(b1-4)GlcNAc
# In short: as §1
# [8] = target: GlcNAc(a1-4)Gal(b1-3)GlcNAc
# In short: as §1
# [9] = target: GlcNAc(a1-4)Gal(b1-4)GalNAc
# In short: as §1
# [10] = target: GlcNAc(a1-4)Gal(b1-4)GlcNAc
# In short: as §1
# [11] = target: GlcNAc(a1-4)Gal(b1-4)GlcNAc(b1-3)Gal(b1-4)Glc
# In short: as §1
# [12] = target: GlcNAc(a1-4)Gal(b1-4)GlcNAc(b1-3)Gal(b1-4)GlcNAc
# In short: as §1
# [13] = target: GlcNAc(a1-4)Gal(b1-4)GlcNAc(b1-3)Gal(b1-4)GlcNAc(b1-3)Gal(b1-4)GlcNAc
# In short: as §1
# [14] = target: GlcNAc(a1-4)Gal(b1-4)GlcNAc(b1-3)Gal(b1-4)[Fuc(a1-3)]GlcNAc(b1-3)Gal(b1-4)[Fuc(a1-3)]GlcNAc
# In short: as §1
# [15] = target: GlcNAc(a1-6)Gal(b1-4)GlcNAc
# In short: as §1
# [16] = target: GlcNAc(b1-2)Gal(b1-3)GalNAc
# In short: as §1
# [17] = target: GlcNAc(b1-2)Man(a1-3)[GlcNAc(b1-2)Man(a1-6)]Man(b1-4)GlcNAc(b1-4)GlcNAc
# In short: as §1
# [18] = target: GlcNAc(b1-2)Man(a1-3)[GlcNAc(b1-2)Man(a1-6)]Man(b1-4)GlcNAc(b1-4)[Fuc(a1-6)]GlcNAc
# In short: as §1
# [19] = target: GlcNAc(b1-2)Man(a1-3)[GlcNAc(b1-4)][GlcNAc(b1-2)Man(a1-6)]Man(b1-4)GlcNAc(b1-4)GlcNAc
# In short: as §1
# [20] = target: GlcNAc(b1-2)Man(a1-3)[GlcNAc(b1-4)][GlcNAc(b1-2)Man(a1-6)]Man(b1-4)GlcNAc(b1-4)[Fuc(a1-6)]GlcNAc
# In short: as §1
# [21] = target: GlcNAc(b1-2)[GlcNAc(b1-4)]Man(a1-3)[GlcNAc(b1-2)Man(a1-6)]Man(b1-4)GlcNAc(b1-4)GlcNAc
# In short: as §1
# [22] = target: GlcNAc(b1-2)[GlcNAc(b1-4)]Man(a1-3)[GlcNAc(b1-4)][GlcNAc(b1-2)Man(a1-6)]Man(b1-4)GlcNAc(b1-4)GlcNAc
# In short: as §1
# [23] = target: GlcNAc(b1-2)[GlcNAc(b1-4)]Man(a1-3)[GlcNAc(b1-4)][GlcNAc(b1-2)[GlcNAc(b1-6)]Man(a1-6)]Man(b1-4)GlcNAc(b1-4)GlcNAc
# In short: as §1
# [24] = target: GlcNAc(b1-2)[GlcNAc(b1-4)]Man(a1-3)[GlcNAc(b1-4)][GlcNAc(b1-2)[GlcNAc(b1-6)]Man(a1-6)]Man(b1-4)GlcNAc(b1-4)[Fuc(a1-6)]GlcNAc
# In short: as §1
# [25] = target: GlcNAc(b1-2)[GlcNAc(b1-6)]Man(a1-6)[GlcNAc(b1-2)Man(a1-3)]Man(b1-4)GlcNAc(b1-4)GlcNAc
# In short: as §1
# [26] = target: GlcNAc(b1-2)[GlcNAc(b1-6)]Man(a1-6)[GlcNAc(b1-2)Man(a1-3)]Man(b1-4)GlcNAc(b1-4)[Fuc(a1-6)]GlcNAc
# In short: as §1
# [27] = target: GlcNAc(b1-2)[GlcNAc(b1-6)]Man(a1-6)[GlcNAc(b1-4)][GlcNAc(b1-2)Man(a1-3)]Man(b1-4)GlcNAc(b1-4)GlcNAc
# In short: as §1
# [28] = target: GlcNAc(b1-3)Fuc
# In short: as §1
# [29] = target: GlcNAc(b1-3)Gal
# In short: as §1
# [30] = target: GlcNAc(b1-3)Gal(b1-3)GalNAc
# In short: as §1
# [31] = target: GlcNAc(b1-3)Gal(b1-4)Glc
# In short: as §1
# [32] = target: GlcNAc(b1-3)Gal(b1-4)GlcNAc
# In short: as §1
# [33] = target: GlcNAc(b1-3)Gal(b1-4)GlcNAc(b1-2)Man(a1-3)[GlcNAc(b1-3)Gal(b1-4)GlcNAc(b1-2)Man(a1-6)]Man(b1-4)GlcNAc(b1-4)GlcNAc
# In short: as §1
# [34] = target: GlcNAc(b1-3)Gal(b1-4)GlcNAc(b1-2)Man(a1-3)[GlcNAc(b1-3)Gal(b1-4)GlcNAc(b1-2)Man(a1-6)]Man(b1-4)GlcNAc(b1-4)[Fuc(a1-6)]GlcNAc
# In short: as §1
# [35] = target: GlcNAc(b1-3)Gal(b1-4)GlcNAc(b1-2)[GlcNAc(b1-3)Gal(b1-4)GlcNAc(b1-6)]Man(a1-6)[GlcNAc(b1-3)Gal(b1-4)GlcNAc(b1-2)Man(a1-3)]Man(b1-4)GlcNAc(b1-4)GlcNAc
# In short: as §1
# [36] = target: GlcNAc(b1-3)Gal(b1-4)GlcNAc(b1-3)Gal(b1-4)GlcNAc
# In short: as §1
# [37] = target: GlcNAc(b1-3)Gal(b1-4)GlcNAc(b1-3)Gal(b1-4)GlcNAc(b1-2)Man(a1-3)[GlcNAc(b1-3)Gal(b1-4)GlcNAc(b1-3)Gal(b1-4)GlcNAc(b1-2)Man(a1-6)]Man(b1-4)GlcNAc(b1-4)GlcNAc
# In short: as §1
binder,measurement,setting,value
PX9961X-pdi-531-24-531 (Parabacteroides distasonis) (protein) DLTEEIHSSVIAENYYNNAGEVMAAMMRPWGHFCGTMQVAQSPWSCNELSSDCAAWPQKGRHGYDNGDWIRLHRHQWIPTDGQVVDAWKKLFEGIGYANNFLTDTENIDFEALQVPMSKAQAQAEMRVYRAYCYWYVMDMFGTAPICEKIGEINPSSKSRAELFAWIEKELNESIPSLSESKTETYGRVSKWGAYALLARLYLNAEIYTGQARWDDCIAACDELAKGGFALDKKWNDTFRADNDKRSTEIIWSIVYDEVYAKGMGWYQRWLHYAHQTGWDLQSGPWNGLVTQPTFYDSFADNDLRKIEGFLIGKQYPRKVDENGNYYYDTTAEPLKGSEEYNGQDLVFVNYIKSMTEGEENSGARSIKYEIQPGTTGDMNNDWVMFRYSEVIYNKAEALMRKNGGKATQEVVDMINSVRQRSFKAEDWEKAKYTTATLTMDEFLAEKGREFAFEGIRRTDLVRFNKFVTTSWWDKTASNEPKRNIFPIPQRQLDANANLSPNEANSLF,glycan array binding signal (z-score),[1],-0.278
same,glycan array binding signal (z-score),[2],0.066
same,glycan array binding signal (z-score),[3],-0.617
same,glycan array binding signal (z-score),[4],-0.549
same,glycan array binding signal (z-score),[5],-0.634
same,glycan array binding signal (z-score),[6],1.17
same,glycan array binding signal (z-score),[7],-0.744
same,glycan array binding signal (z-score),[8],-0.265
same,glycan array binding signal (z-score),[9],0.601
same,glycan array binding signal (z-score),[10],0.021
same,glycan array binding signal (z-score),[11],0.222
same,glycan array binding signal (z-score),[12],-0.352
same,glycan array binding signal (z-score),[13],-0.245
same,glycan array binding signal (z-score),[14],-0.426
same,glycan array binding signal (z-score),[15],-0.611
same,glycan array binding signal (z-score),[16],-0.345
same,glycan array binding signal (z-score),[17],-0.516
same,glycan array binding signal (z-score),[18],-0.011
same,glycan array binding signal (z-score),[19],-0.544
same,glycan array binding signal (z-score),[20],-0.291
same,glycan array binding signal (z-score),[21],-0.363
same,glycan array binding signal (z-score),[22],-0.951
same,glycan array binding signal (z-score),[23],-0.025
same,glycan array binding signal (z-score),[24],-0.384
same,glycan array binding signal (z-score),[25],-0.219
same,glycan array binding signal (z-score),[26],-0.189
same,glycan array binding signal (z-score),[27],-0.984
same,glycan array binding signal (z-score),[28],-0.239
same,glycan array binding signal (z-score),[29],0.313
same,glycan array binding signal (z-score),[30],-0.037
same,glycan array binding signal (z-score),[31],-0.353
same,glycan array binding signal (z-score),[32],-0.269
same,glycan array binding signal (z-score),[33],-0.046
same,glycan array binding signal (z-score),[34],0.501
same,glycan array binding signal (z-score),[35],1.39
same,glycan array binding signal (z-score),[36],-0.862
same,glycan array binding signal (z-score),[37],-0.089
